Several values for one entry are separate records, joined by “and”; a condition that tells them apart may be missing. Identical values can stand only once. Screen size: about 360,000 compounds; about 2,600 (0.72%) were called active. This list was built around the results that the source calls inconclusive (neither active nor inactive); the mix of calls is not that of the screen. The call rests on the fitted dose curve; in most records, active means well fitted inhibition curve with a large enough effect; inconclusive means small, poorly fitted or top-dose-only effect; inactive means no such curve, though single readings can be large or run the other way. Potencies of inconclusive entries are doubtful fits and often do not repeat.
Experiment: Primary qHTS for Inhibitors of ATXN expression; further: nearly all actives have a fitted effect of over 55% in size
Conditions: HEK-293 ATXN2-luciferase reporter, luminescence, 24 h; activity change, negative = inhibition: at 57 µM (top of the series)
In short: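 ATXN2-luciferase reporter cells (luciferase flanked by upstream and downstream ATXN2 gene portions) were treated 24 h at 37 °C with compounds at up to 57 uM. SteadyGlo luminescence gave expression; GF-AFC fluorescence gave viability.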
On the % scale 0 is the no-effect control and ±100 the full control effect; potency means the concentration at half of the fitted maximal effect; tags describe the fitted curve by direction and shape.

Structure (SMILES) | activity change, negative = inhibition | Potency
c1ccc(-c2csc(Nc3cccnc3)n2)nc1 | inactive: 61.5% | 
Cc1ccc(S(=O)(=O)c2c(C)nn(C(C)(C)C)c2OC(=O)c2cccs2)cc1 |  | inconclusive: 12.6 µM [inhibitor, partial curve]
COc1ccc(CCNC(=O)c2cc3c(=O)n4ccccc4nc3n(CCN3CCOCC3)c2=N)cc1 |  | inconclusive: 28.2 µM [inhibitor, partial curve, poor fit]
CC(C)n1c(CSCc2ccc(Cl)cc2Cl)n[nH]c1=S | inactive: -3.9% | 
Cc1cc(/C=C(\C#N)C(=O)NCc2ccco2)c(C)[nH]1 | inactive: 22% | 
CCC(Sc1nc2ccccc2c2nc(-c3ccccc3)nn12)C(=O)Nc1cccc(OC)c1 (stereo not drawn) | inactive: 9.45% | 
CC(Sc1nc(NCc2ccccc2)nc(N(C)C)n1)C(=O)Nc1ccccc1 (stereo not drawn) |  | inconclusive: 25.1 µM [inhibitor, partial curve, poor fit]
Cc1ccnc(NC(=O)C2CCN(S(=O)(=O)c3ccc4c(c3)CC(C)N4C(=O)C3CCC3)CC2)c1 (stereo not drawn) |  | inconclusive: 35.5 µM [inhibitor, single point]
O=C(N/N=C/c1c[nH]c2c1ccc1ccccc12)c1ccc([N+](=O)[O-])cc1 |  | inconclusive: 0.947 µM [inhibitor, full curve, poor fit]
CCCc1nc2c3ccccc3ccn2c1Cc1ccccc1C(F)(F)F |  | inconclusive: 39.8 µM [inhibitor, single point]
CCO[C@@H]1OC(C(=O)N2CCN(Cc3ccccc3)CC2)=C[C@H](c2csc3ccccc23)[C@H]1CCCO |  | inconclusive: 35.5 µM [inhibitor, single point]
Cc1nc(-c2ccc(F)cc2)c(CC(=O)N(C)CC(=O)Nc2ccc(Cl)c(C(F)(F)F)c2)s1 |  | inconclusive: 39.8 µM [inhibitor, single point]
COc1ccc(C2=Nn3c(nnc3-c3ccccc3F)SC2)cc1OC1CCCC1 | inactive: -58% | 
O=C(NNC(=O)c1csc(-c2cnccc2C(F)(F)F)n1)c1ccc(C(F)(F)F)cc1 |  | inconclusive: 37.7 µM [inhibitor, single point]
CSc1nnc2c3ccccc3n(Cc3ccccc3)c2n1 |  | inconclusive: 39.8 µM [inhibitor, single point]
COc1ccc(/C(N)=N/OC(=O)c2c(-c3ccccc3Cl)noc2C)cc1OC |  | inconclusive: 31.6 µM [inhibitor, single point]
CC(C(Sc1ccccc1N)c1ccccc1)[N+](=O)[O-] (stereo not drawn) |  | inconclusive: 39.8 µM [inhibitor, single point]
CCOC(=O)c1c(C)n(C)c2ccc(OCC(O)Cn3c(C)nc4ccccc43)cc12 (stereo not drawn) |  | inconclusive: 25.1 µM [inhibitor, partial curve, poor fit]
O=C(N/N=C/c1ccc2cccnc2c1)c1ccco1 |  | inconclusive: 12.6 µM [inhibitor, single point]
CCc1nc2ccccc2c(C(=O)OCC(=O)N(CC(C)C)c2c(N)n(Cc3ccccc3)c(=O)[nH]c2=O)c1C | inactive: -6.39% | 
CCOc1ccc(S(=O)(=O)Nc2nc3ccccc3nc2Nc2ccc(OC)cc2)cc1 | inactive: 16.7% | 

Structure (SMILES) | activity change, negative = inhibition | Potency
Clc1ccc(C2=Nn3c(nnc3-c3cc(-c4ccccc4)n[nH]3)SC2)cc1 |  | inconclusive: 35.5 µM [inhibitor, single point]
COc1cccc(NC(=O)CCN2CCN(c3ccccc3F)CC2)c1 |  | inconclusive: 28.2 µM [inhibitor, partial curve, poor fit]
Cc1nc2ccccc2c(=O)n1/N=C/c1c(O)ccc2oc3c(c12)CCCC3 |  | inconclusive: 15.8 µM [inhibitor, partial curve, poor fit]
CCC/C(C#CCCN1C(=O)c2ccccc2C1=O)=C1/c2ccccc2C(=O)N1c1ccccc1 |  | inconclusive: 28.2 µM [inhibitor, single point]
Cc1ccccc1OCC(=O)Nc1nnc(-c2ccncc2)s1 |  | inconclusive: 10 µM [inhibitor, partial curve, poor fit]
CC(=O)Nc1ccc(S(=O)(=O)N2CCN(CC(O)COc3ccc4ccccc4c3)CC2)cc1 (stereo not drawn) |  | inconclusive: 22.4 µM [inhibitor, single point]
Cc1ccccc1N(C(=O)c1snc(C(N)=O)c1N)C(C(=O)NCc1ccccc1)c1ccc(O)cc1 (stereo not drawn) |  | inconclusive: 39.8 µM [inhibitor, single point]
NCCCn1c(C(=O)c2ccc(Cl)cc2)c2ccc([N+](=O)[O-])cc2[n+]1[O-] |  | inconclusive: 12.6 µM [inhibitor, partial curve]
Cc1ccc(Cl)cc1-n1ncc2c(Nc3cccc(C)c3C)ncnc21 |  | inconclusive: 31.6 µM [inhibitor, single point]
Cc1ccc(Nc2c(-c3ccccn3)nc3cccc(C)n23)cc1 |  | active: 6.31 µM
O=C(COC(=O)C1(c2ccccc2F)CCCC1)NCc1cccs1 | inactive: 1.55% [at 11.3 µM] | 
CCc1ccccc1NC(=O)C1CCCN(c2ncnc3onc(C)c23)C1 (stereo not drawn) | inactive: -5.18% | 
C#CCOCCOCCOCCNc1nc(N2CCN(C(=O)CCCCCCCCCCNC(=O)[C@H](CCCCN)n3cc(CCO)nn3)CC2)nc(N2CCN(C(=O)CCCCCCCCCCNC(=O)[C@@H]([C@H](C)O)n3cc(C)nn3)CC2)n1 | inactive: -6.15% | 
CCOC(=O)[C@]12CCC=C1N(Cc1ccco1)C(=O)[C@H](CC(=O)N1CCC(c3ccccc3)CC1)C2 | inactive: 1.88% | 
O=C(CCc1ccccc1)N/N=C/c1cc(Br)ccc1O |  | inconclusive: 35.5 µM [inhibitor, single point]
Cc1ccc(C(=O)Nc2cccc(C(F)(F)F)c2)cc1Nc1cncnc1 |  | inconclusive: 28.2 µM [inhibitor, single point] and inconclusive: 22.4 µM [inhibitor, single point]
CCOc1ccc(-n2c(-c3ccco3)nc3c(cnn3-c3ccc(C)cc3)c2=O)cc1 | inactive: -12.5% | 
O=C(COCc1cc(-c2ccc3c(c2)OCO3)on1)N1CCN(c2ccccc2)CC1 |  | inconclusive: 8.91 µM [inhibitor, partial curve, poor fit]
COc1ccccc1NC(=O)C1=C(C)Nc2nc(SCc3ccccc3F)nn2C1c1cccs1 (stereo not drawn) | inactive: -3.96% | 
COc1cc(-c2nn(C3CCC(N4CCN(C(C)=O)CC4)CC3)c3ncnc(N)c23)ccc1NC(=O)c1cc2ccccc2n1C (stereo not drawn) |  | inconclusive: 1.09 µM [inhibitor, full curve]
CC(NC(=O)CN1CCN(c2ccc(Cl)cc2)CC1)c1ccccc1 (stereo not drawn) | inconclusive: -42% [inhibitor] | 

Structure (SMILES) | activity change, negative = inhibition | Potency
Cn1c(NC(=O)c2cccc(Cn3cc(Cl)cn3)c2)nc2ccccc21 | inactive: -35.6% | 
COc1ccc(S(=O)(=O)Nc2ccc3c(c2)CCCN3S(=O)(=O)c2ccc(C)cc2)cc1F |  | inconclusive: 35.5 µM [inhibitor, single point]
COc1ccc(C)cc1NC(=O)CN1C(=O)c2cccc3cccc1c23 |  | inconclusive: 39.8 µM [inhibitor, partial curve, poor fit]
CCc1ccc(OCC(=O)N/N=C/c2cc([N+](=O)[O-])ccc2N2CCOCC2)cc1 |  | inconclusive: 39.8 µM [inhibitor, single point]
CCOC(=O)c1ccc(NC(=O)Nc2cc3c(cc2N2CCCC2)n(C)c(=O)n3C)cc1 |  | inconclusive: 31.6 µM [inhibitor, single point]
CCn1ccc2c(OCC(=O)Nc3ccccc3C)cccc2c1=O | inactive: -22% | 
Cc1sc2nc(-c3ccc(Br)cc3)oc(=O)c2c1C | inactive: 23.3% | 
CN1C(=O)C(=O)/C(=C(/O)c2ccccc2)C1c1ccc([N+](=O)[O-])cc1 (stereo not drawn) | inactive: -9.29% | 
COc1ccc(C2=CC(c3ccc(F)cc3)n3nnnc3N2)cc1 (stereo not drawn) | inactive: 30.1% | 
CCCOC(=O)c1ccc(NC(=O)c2ccccc2OC)cc1 | inactive: 61% | 
Nc1nc(N)c2cc(Sc3ccc4ccccc4c3)ccc2n1 |  | inconclusive: 33.6 µM [inhibitor, partial curve, poor fit]
COc1ccc(/C=C/c2cc[n+](C(=O)Cc3ccccc3)cc2)cc1 |  | inconclusive: 11.9 µM [inhibitor, single point]
CCc1cccc(C)c1NC(=S)NCC1CCN(c2ccc(OC)cc2)C1 (stereo not drawn) |  | inconclusive: 31.6 µM [inhibitor, partial curve, poor fit]
NS(=O)(=O)c1cccc2c1C(=O)c1cccc(O)c1C2=O |  | active: 3.06 µM
N#C/C(=C/c1cn(-c2ccccc2)nc1-c1cccc(OCc2ccc(F)cc2)c1)C(=O)NCCCn1ccnc1 |  | inconclusive: 17.8 µM [inhibitor, partial curve]
COc1ccc([N+](=O)[O-])cc1NC(=O)C1CCCN1S(=O)(=O)c1cccs1 (stereo not drawn) |  | inconclusive: 12.6 µM [inhibitor, single point]
CC(C(=O)Nc1ncccn1)(c1ccccc1)c1ccccc1 |  | inconclusive: 6.7 µM [inhibitor, partial curve, poor fit]
O=c1c2ccccc2n(CC(O)CN2CCCCC2)c2ccccc12 (stereo not drawn) |  | inconclusive: 39.8 µM [inhibitor, single point]
C=CC[C@H](CC(=O)NCCO)C(=O)NC[C@@H](OC(=O)[C@@H](CC=C)Cc1ccc(F)cc1)c1ccccc1 |  | inconclusive: 39.8 µM [inhibitor, single point]
CCCCc1c(-c2ccccc2)ncn1CCc1ccccc1OC |  | inconclusive: 22.4 µM [inhibitor, partial curve, poor fit]
Fc1ccc(-c2noc3ncnc(NCC4CCN(Cc5ccc(Cl)cc5)CC4)c23)cc1 |  | inconclusive: 35.5 µM [inhibitor, partial curve, poor fit]

From PubChem BioAssay AID1745845 (National Center for Advancing Translational Sciences (NCATS), 2022)
